# Data published in the supplement of paper PMC8728848.
# This is one part of the list.
# Legend:
# Assay in all cases: glycan array binding signal (z-score within array); higher = stronger binding
# Settings in all cases: glycan notation: IUPAC condensed, linker removed
# [1] = target: Gal(b1-4)GlcNAc(b1-2)Man(a1-3)[GlcNAc(b1-2)Man(a1-6)]Man(b1-4)GlcNAc(b1-4)GlcNAc
# Outline: (§1)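 Glycan array data came from 3228 arrays in the Consortium for Functional Glycomics database, and only arrays with an available protein sequence were kept. Glycan names were put into IUPAC-condensed notation, and columns mapping to the same glycan were averaged. The binding signal is a within-array Z-score, averaged across arrays of one protein sequence run at different concentrations or buffers and across linkers. A negative Z-score can be read as non-binding.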
# [2] = target: Gal(b1-4)GlcNAc(b1-2)Man(a1-3)[GlcNAc(b1-4)][Gal(b1-4)GlcNAc(b1-2)Man(a1-6)]Man(b1-4)GlcNAc(b1-4)GlcNAc
# Outline: as §1
# [3] = target: Gal(b1-4)GlcNAc(b1-2)Man(a1-3)[Man(a1-6)]Man(b1-4)GlcNAc(b1-4)GlcNAc
# Outline: as §1
# [4] = target: Gal(b1-4)GlcNAc(b1-2)Man(a1-6)Man(b1-4)GlcNAc(b1-4)GlcNAc
# Outline: as §1
# [5] = target: Gal(b1-4)GlcNAc(b1-2)Man(a1-6)[GlcNAc(b1-2)Man(a1-3)]Man(b1-4)GlcNAc(b1-4)GlcNAc
# Outline: as §1
# [6] = target: Gal(b1-4)GlcNAc(b1-2)Man(a1-6)[Man(a1-3)]Man(b1-4)GlcNAc(b1-4)GlcNAc
# Outline: as §1
# [7] = target: Gal(b1-4)GlcNAc(b1-2)[Gal(b1-4)GlcNAc(b1-4)]Man(a1-3)[Gal(b1-4)GlcNAc(b1-2)Man(a1-6)]Man(b1-4)GlcNAc(b1-4)GlcNAc
# Outline: as §1
# [8] = target: Gal(b1-4)GlcNAc(b1-2)[Gal(b1-4)GlcNAc(b1-4)]Man(a1-3)[Gal(b1-4)GlcNAc(b1-2)[Gal(b1-4)GlcNAc(b1-6)]Man(a1-6)]Man(b1-4)GlcNAc(b1-4)GlcNAc
# Outline: as §1
# [9] = target: Gal(b1-4)GlcNAc(b1-2)[Gal(b1-4)GlcNAc(b1-4)]Man(a1-3)[GlcNAc(b1-4)][Gal(b1-4)GlcNAc(b1-2)Man(a1-6)]Man(b1-4)GlcNAc(b1-4)GlcNAc
# Outline: as §1
# [10] = target: Gal(b1-4)GlcNAc(b1-2)[Gal(b1-4)GlcNAc(b1-4)]Man(a1-3)[GlcNAc(b1-4)][Gal(b1-4)GlcNAc(b1-2)[Gal(b1-4)GlcNAc(b1-6)]Man(a1-6)]Man(b1-4)GlcNAc(b1-4)GlcNAc
# Outline: as §1
# [11] = target: Gal(b1-4)GlcNAc(b1-2)[Gal(b1-4)GlcNAc(b1-6)]Man(a1-6)[Gal(b1-4)GlcNAc(b1-2)Man(a1-3)]Man(b1-4)GlcNAc(b1-4)GlcNAc
# Outline: as §1
# [12] = target: Gal(b1-4)GlcNAc(b1-2)[Gal(b1-4)GlcNAc(b1-6)]Man(a1-6)[Gal(b1-4)GlcNAc(b1-2)Man(a1-3)]Man(b1-4)GlcNAc(b1-4)[Fuc(a1-6)]GlcNAc
# Outline: as §1
# [13] = target: Gal(b1-4)GlcNAc(b1-2)[Gal(b1-4)GlcNAc(b1-6)]Man(a1-6)[GlcNAc(b1-4)][Gal(b1-4)GlcNAc(b1-2)Man(a1-3)]Man(b1-4)GlcNAc(b1-4)GlcNAc
# Outline: as §1
# [14] = target: Gal(b1-4)GlcNAc(b1-2)[Gal(b1-4)GlcNAc(b1-6)]Man(a1-6)[GlcNAc(b1-4)][Gal(b1-4)GlcNAc(b1-2)[Gal(b1-4)GlcNAc(b1-4)]Man(a1-3)]Man(b1-4)GlcNAc(b1-4)[Fuc(a1-6)]GlcNAc
# Outline: as §1
# [15] = target: Gal(b1-4)GlcNAc(b1-3)Gal(b1-3)GalNAc
# Outline: as §1
# [16] = target: Gal(b1-4)GlcNAc(b1-3)Gal(b1-3)GlcNAc
# Outline: as §1
# [17] = target: Gal(b1-4)GlcNAc(b1-3)Gal(b1-4)Glc
# Outline: as §1
# [18] = target: Gal(b1-4)GlcNAc(b1-3)Gal(b1-4)GlcNAc
# Outline: as §1
# [19] = target: Gal(b1-4)GlcNAc(b1-3)Gal(b1-4)GlcNAc(b1-2)Man(a1-3)[Gal(b1-4)GlcNAc(b1-3)Gal(b1-4)GlcNAc(b1-2)Man(a1-6)]Man(b1-4)GlcNAc(b1-4)GlcNAc
# Outline: as §1
# [20] = target: Gal(b1-4)GlcNAc(b1-3)Gal(b1-4)GlcNAc(b1-2)Man(a1-3)[Gal(b1-4)GlcNAc(b1-3)Gal(b1-4)GlcNAc(b1-2)Man(a1-6)]Man(b1-4)GlcNAc(b1-4)[Fuc(a1-6)]GlcNAc
# Outline: as §1
# [21] = target: Gal(b1-4)GlcNAc(b1-3)Gal(b1-4)GlcNAc(b1-2)[Gal(b1-4)GlcNAc(b1-3)Gal(b1-4)GlcNAc(b1-6)]Man(a1-6)[Gal(b1-4)GlcNAc(b1-3)Gal(b1-4)GlcNAc(b1-2)Man(a1-3)]Man(b1-4)GlcNAc(b1-4)GlcNAc
# Outline: as §1
# [22] = target: Gal(b1-4)GlcNAc(b1-3)Gal(b1-4)GlcNAc(b1-2)[Gal(b1-4)GlcNAc(b1-3)Gal(b1-4)GlcNAc(b1-6)]Man(a1-6)[Gal(b1-4)GlcNAc(b1-3)Gal(b1-4)GlcNAc(b1-2)Man(a1-3)]Man(b1-4)GlcNAc(b1-4)[Fuc(a1-6)]GlcNAc
# Outline: as §1
binder,measurement,setting,value
"ECA (Erythrina cristagalli), P83410 (protein) VETISFSFSEFEPGNDNLTLQGAALITQSGVLQLTKINQNGMPAWDSTGRTLYTKPVHMWDSTTGTVASFETRFSFSIEQPYTRPLPADGLVFFMGPTKSKPAQGYGYLGVFNNSKQDNSYQTLAVEFDTFSNPWDPPQVPHIGIDVNSIRSIKTQPFQLDNGQVANVVIKYDAPSKILHVVLVYPSSGAIYTIAEIVDVKQVLPDWVDVGLSGATGAQRDAAETHDVYSWSFQASLPE",glycan array binding signal (z-score),[1],-0.236
same,glycan array binding signal (z-score),[2],-0.431
same,glycan array binding signal (z-score),[3],0.05
same,glycan array binding signal (z-score),[4],-0.467
same,glycan array binding signal (z-score),[5],-0.372
same,glycan array binding signal (z-score),[6],-0.277
same,glycan array binding signal (z-score),[7],-0.152
same,glycan array binding signal (z-score),[8],-0.515
same,glycan array binding signal (z-score),[9],0.049
same,glycan array binding signal (z-score),[10],-0.361
same,glycan array binding signal (z-score),[11],0.431
same,glycan array binding signal (z-score),[12],-0.445
same,glycan array binding signal (z-score),[13],-0.314
same,glycan array binding signal (z-score),[14],0.087
same,glycan array binding signal (z-score),[15],-0.403
same,glycan array binding signal (z-score),[16],0.087
same,glycan array binding signal (z-score),[17],2.06
same,glycan array binding signal (z-score),[18],1.99
same,glycan array binding signal (z-score),[19],3.88
same,glycan array binding signal (z-score),[20],0.465
same,glycan array binding signal (z-score),[21],0.758
same,glycan array binding signal (z-score),[22],0.699
